This is one part of the list. Most values come without repeats; read them as rough.
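Further: cells treated in 1,536-well plates, then fixed and DAPI-stained, with nuclei counted from automated high-throughput microscope images.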

For the assay, the system named is A2058. Description: cell count relative to DMSO control; melanoma cells; higher = more viable cells. Particulars: library dose: standard library concentration; 72 h.
On to `NC1(c2ccc(-c3nc4ccn5c(=O)[nH]nc5c4cc3-c3ccccc3)cc2)CCC1` + O=C(Nc1ccccc1)c1cc([N+](=O)[O-])ccc1Cl [GW9662] (first compound 2 µM, partner dose 10 µM), for which the cell count was determined as 64.1%.

In the case of `C=C(c1ccc(C(=O)O)cc1)c1cc2c(cc1C)C(C)(C)CCC2(C)C` [Bexarotene] + O=C(CCCCCCC(=O)Nc1ccccc1)NO [vorinostat] (first compound 10 µM, partner dose 0.4 µM), the cell count was 72.8%.

As for `CCCS(=O)(=O)Nc1ccc(F)c(C(=O)c2c[nH]c3ncc(Cl)cc23)c1F` + O=C1NC(=O)/C(=C/c2ccc(-c3ccc(F)cc3O)o2)S1 [AS252424] (first compound 0.4 µM, partner dose 5 µM), the cell count is 107%.

As to `NC1(c2ccc(-c3nc4ccn5c(=O)[nH]nc5c4cc3-c3ccccc3)cc2)CCC1` + O=C(O)C(=O)Nc1sc2c(c1C(=O)O)CCNC2 [TCS401] (first compound 2 µM, partner dose 8.33333 µM), the cell count was found to be 82.5%.

`CN(c1ncccc1CNc1nc(Nc2ccc3c(c2)CC(=O)N3)ncc1C(F)(F)F)S(C)(=O)=O` + CC(=O)c1c(C)c2cnc(Nc3ccc(N4CCNCC4)cn3)nc2n(C2CCCC2)c1=O [palbociclib] (first compound 0.4 µM, partner dose 0.2 µM): the cell count worked out at 80.3%.

The molecule `C=C(c1ccc(C(=O)O)cc1)c1cc2c(cc1C)C(C)(C)CCC2(C)C` [Bexarotene] + CCCCCCCCCCCC1=C(O)C(=O)C=C(O)C1=O [Embelin] (first compound 10 µM, partner dose 6 µM) showed a cell count of 94.5%.

In turn, `CN(c1ncccc1CNc1nc(Nc2ccc3c(c2)CC(=O)N3)ncc1C(F)(F)F)S(C)(=O)=O` + COc1ccc(-c2ccc3c(N4CCOCC4)nc(N4C[C@@H](C)O[C@@H](C)C4)nc3n2)cc1CO [KU0063794] (first compound 0.4 µM, partner dose 0.1 µM) returned a cell count of 78.7%.

On to `CN(c1ncccc1CNc1nc(Nc2ccc3c(c2)CC(=O)N3)ncc1C(F)(F)F)S(C)(=O)=O` + COC(=O)c1sccc1S(=O)(=O)Nc1ccc(Nc2ccccc2)cc1OC [GSK0660] (first compound 0.4 µM, partner dose 5 µM), for which the cell count stood at 81.5%.

`NC1(c2ccc(-c3nc4ccn5c(=O)[nH]nc5c4cc3-c3ccccc3)cc2)CCC1` + O=c1cc(-c2cccc3c2Sc2ccccc2S3)oc(N2CCOCC2)c1 [KU55933] (first compound 2 µM, partner dose 5 µM) yielded a cell count of 77.6%.

`CN(c1ncccc1CNc1nc(Nc2ccc3c(c2)CC(=O)N3)ncc1C(F)(F)F)S(C)(=O)=O` + CCCCCCCCCCCC1=C(O)C(=O)C=C(O)C1=O [Embelin] (first compound 0.4 µM, partner dose 6 µM) yielded a cell count of 74.7%.

The molecule `CN(c1ncccc1CNc1nc(Nc2ccc3c(c2)CC(=O)N3)ncc1C(F)(F)F)S(C)(=O)=O` + COc1cc2ncnc(Nc3ccc(Oc4ccccc4)cc3)c2cc1OC [SrcI1] (first compound 0.4 µM, partner dose 10 µM) registered a cell count of 75.5%.

Take `CS(=O)(=O)c1ccc(C(=O)Nc2ccc(Cl)c(-c3ccccn3)c2)c(Cl)c1` [vismodegib] + CCN(CC)CCCCNc1ncc2cc(-c3cc(OC)cc(OC)c3)c(NC(=O)NC(C)(C)C)nc2n1 [PD173074] (first compound 5 µM, partner dose 0.5 µM): the cell count was found to be 116%.

As to `C=C(c1ccc(C(=O)O)cc1)c1cc2c(cc1C)C(C)(C)CCC2(C)C` [Bexarotene] + Cn1nnc2c(C(N)=O)ncn2c1=O [temozolomide] (first compound 10 µM, partner dose 10 µM), the cell count was 44.3%.

On to `NC1(c2ccc(-c3nc4ccn5c(=O)[nH]nc5c4cc3-c3ccccc3)cc2)CCC1` + CCN(CC)CCCCNc1ncc2cc(-c3cc(OC)cc(OC)c3)c(NC(=O)NC(C)(C)C)nc2n1 [PD173074] (first compound 2 µM, partner dose 0.5 µM), for which the cell count turned out to be 102%.

With `CN(c1ncccc1CNc1nc(Nc2ccc3c(c2)CC(=O)N3)ncc1C(F)(F)F)S(C)(=O)=O` + O=C(O)C(=O)Nc1sc2c(c1C(=O)O)CCNC2 [TCS401] (first compound 0.4 µM, partner dose 8.33333 µM), the cell count is 81.5%.

Turning to `CN(c1ncccc1CNc1nc(Nc2ccc3c(c2)CC(=O)N3)ncc1C(F)(F)F)S(C)(=O)=O` + COc1ccc(COc2ccc(Cc3cnc(N)nc3N)cc2OC)cc1 [GW2580] (first compound 0.4 µM, partner dose 5 µM), the cell count stood at 78.8%.

In the case of `CN(c1ncccc1CNc1nc(Nc2ccc3c(c2)CC(=O)N3)ncc1C(F)(F)F)S(C)(=O)=O` + CCN(CC)CCCCNc1ncc2cc(-c3cc(OC)cc(OC)c3)c(NC(=O)NC(C)(C)C)nc2n1 [PD173074] (first compound 0.4 µM, partner dose 0.5 µM), the cell count worked out at 80.8%.

`NC1(c2ccc(-c3nc4ccn5c(=O)[nH]nc5c4cc3-c3ccccc3)cc2)CCC1` + c1cc(-c2cnn3cc(-c4ccc(OCCN5CCCCC5)cc4)cnc23)ccn1 [Dorsomorphin] (first compound 2 µM, partner dose 2 µM) had a cell count of 56%.

For the molecule `C=C(c1ccc(C(=O)O)cc1)c1cc2c(cc1C)C(C)(C)CCC2(C)C` [Bexarotene] + c1cc(-c2cnn3cc(-c4ccc(OCCN5CCCCC5)cc4)cnc23)ccn1 [Dorsomorphin] (first compound 10 µM, partner dose 2 µM), the cell count worked out at 80.1%.

`CS(=O)(=O)c1ccc(C(=O)Nc2ccc(Cl)c(-c3ccccn3)c2)c(Cl)c1` [vismodegib] + O=C(O)C(=O)Nc1sc2c(c1C(=O)O)CCNC2 [TCS401] (first compound 5 µM, partner dose 8.33333 µM) gave a cell count of 85%.

In the case of `CN(c1ncccc1CNc1nc(Nc2ccc3c(c2)CC(=O)N3)ncc1C(F)(F)F)S(C)(=O)=O` + N#Cc1c(O)c2c(-c3ccc(-c4ccccc4O)cc3)csc2[nH]c1=O [A769662] (first compound 0.4 µM, partner dose 10 µM), the cell count turned out to be 93.6%.

In turn, `CN(c1ncccc1CNc1nc(Nc2ccc3c(c2)CC(=O)N3)ncc1C(F)(F)F)S(C)(=O)=O` + O=S(=O)(c1ccccc1)N(CC(F)(F)F)c1ccc(C(O)(C(F)(F)F)C(F)(F)F)cc1 [T0901317] (first compound 0.4 µM, partner dose 7 µM) returned a cell count of 72.8%.

`C=C(c1ccc(C(=O)O)cc1)c1cc2c(cc1C)C(C)(C)CCC2(C)C` [Bexarotene] + COc1ccc(COc2ccc(Cc3cnc(N)nc3N)cc2OC)cc1 [GW2580] (first compound 10 µM, partner dose 5 µM) returned a cell count of 97.4%.

For `NC1(c2ccc(-c3nc4ccn5c(=O)[nH]nc5c4cc3-c3ccccc3)cc2)CCC1` + O=C(O)c1ccc(-c2c[nH]c3ncc(-c4ccccc4)cc23)cc1C1CCCC1 [GSK650394] (first compound 2 µM, partner dose 0.8 µM), the cell count came out at 93.3%.

Consider `CCCS(=O)(=O)Nc1ccc(F)c(C(=O)c2c[nH]c3ncc(Cl)cc23)c1F` + Cc1nc(Nc2ncc(C(=O)Nc3c(C)cccc3Cl)s2)cc(N2CCN(CCO)CC2)n1 [dasatanib] (first compound 0.4 µM, partner dose 0.02 µM), for which the cell count turned out to be 81.4%.

For the origin of these results see the supplement of paper PMC4604168 (melanoma cell lines).
